{
  "source": "paper PMC9911399",
  "about": "“Two distinct binding modes provide the RNA-binding protein RbFox with extraordinary sequence specificity”",
  "binders": {"B1": {"name": "UCGUCCG (DNA:RNA)", "RNA": "GGGAGACCGGAAUUCAGAUUGUCCUCGUCCGUUAAAUCCCGUCGUAGCCACCA", "DNA 1": "CAATCTGAATTCCGGTCTCCC", "DNA 2": "TGGTGGCTACGACGGGATT"}, "B2": {"name": "CCCUCCA (DNA:RNA)", "RNA": "B1 RNA with U25C, G27C, G31A", "DNA 1": "CAATCTGAATTCCGGTCTCCC", "DNA 2": "TGGTGGCTACGACGGGATT"}, "B3": {"name": "UCGGCCA (DNA:RNA)", "RNA": "B1 RNA with U28G, G31A", "DNA 1": "CAATCTGAATTCCGGTCTCCC", "DNA 2": "TGGTGGCTACGACGGGATT"}, "B4": {"name": "GAGGUUA (DNA:RNA)", "RNA": "B1 RNA with U25G, C26A, U28G, C29U, C30U, G31A", "DNA 1": "CAATCTGAATTCCGGTCTCCC", "DNA 2": "TGGTGGCTACGACGGGATT"}, "B5": {"name": "ACCAGAC (DNA:RNA)", "RNA": "B1 RNA with U25A, G27C, U28A, C29G, C30A, G31C", "DNA 1": "CAATCTGAATTCCGGTCTCCC", "DNA 2": "TGGTGGCTACGACGGGATT"}, "B6": {"name": "AUUAUGU (DNA:RNA)", "RNA": "GGGAGACCGGAAUUCAGAUUGUCCAUUAUGUUUAAAUCCCGUCGUAGCCACCA", "DNA 1": "CAATCTGAATTCCGGTCTCCC", "DNA 2": "TGGTGGCTACGACGGGATT"}, "B7": {"name": "AGCCCGG (DNA:RNA)", "RNA": "B6 RNA with U26G, U27C, A28C, U29C, U31G", "DNA 1": "CAATCTGAATTCCGGTCTCCC", "DNA 2": "TGGTGGCTACGACGGGATT"}, "B8": {"name": "GAUGUCU (DNA:RNA)", "RNA": "B6 RNA with A25G, U26A, A28G, G30C", "DNA 1": "CAATCTGAATTCCGGTCTCCC", "DNA 2": "TGGTGGCTACGACGGGATT"}, "B9": {"name": "CUGCAUA (DNA:RNA)", "RNA": "B6 RNA with A25C, U27G, A28C, U29A, G30U, U31A", "DNA 1": "CAATCTGAATTCCGGTCTCCC", "DNA 2": "TGGTGGCTACGACGGGATT"}, "B10": {"name": "GUAUCGA (DNA:RNA)", "RNA": "B6 RNA with A25G, U27A, A28U, U29C, U31A", "DNA 1": "CAATCTGAATTCCGGTCTCCC", "DNA 2": "TGGTGGCTACGACGGGATT"}, "B11": {"name": "GUAACGG (DNA:RNA)", "RNA": "B6 RNA with A25G, U27A, U29C, U31G", "DNA 1": "CAATCTGAATTCCGGTCTCCC", "DNA 2": "TGGTGGCTACGACGGGATT"}, "B12": {"name": "UCCAUUG (DNA:RNA)", "RNA": "B1 RNA with G27C, U28A, C29U, C30U", "DNA 1": "CAATCTGAATTCCGGTCTCCC", "DNA 2": "TGGTGGCTACGACGGGATT"}, "B13": {"name": "AACAAUC (DNA:RNA)", "RNA": "B6 RNA with U26A, U27C, U29A, G30U, U31C", "DNA 1": "CAATCTGAATTCCGGTCTCCC", "DNA 2": "TGGTGGCTACGACGGGATT"}, "B14": {"name": "CACGCCU (DNA:RNA)", "RNA": "B1 RNA with U25C, C26A, G27C, U28G, G31U", "DNA 1": "CAATCTGAATTCCGGTCTCCC", "DNA 2": "TGGTGGCTACGACGGGATT"}, "B15": {"name": "GUACCUC (DNA:RNA)", "RNA": "B6 RNA with A25G, U27A, A28C, U29C, G30U, U31C", "DNA 1": "CAATCTGAATTCCGGTCTCCC", "DNA 2": "TGGTGGCTACGACGGGATT"}, "B16": {"name": "AUUGACC (DNA:RNA)", "RNA": "B6 RNA with A28G, U29A, G30C, U31C", "DNA 1": "CAATCTGAATTCCGGTCTCCC", "DNA 2": "TGGTGGCTACGACGGGATT"}, "B17": {"name": "AUGCUGU (DNA:RNA)", "RNA": "B6 RNA with U27G, A28C", "DNA 1": "CAATCTGAATTCCGGTCTCCC", "DNA 2": "TGGTGGCTACGACGGGATT"}, "B18": {"name": "CCCCUUG (DNA:RNA)", "RNA": "B1 RNA with U25C, G27C, U28C, C29U, C30U", "DNA 1": "CAATCTGAATTCCGGTCTCCC", "DNA 2": "TGGTGGCTACGACGGGATT"}, "B19": {"name": "ACGAAUC (DNA:RNA)", "RNA": "B6 RNA with U26C, U27G, U29A, G30U, U31C", "DNA 1": "CAATCTGAATTCCGGTCTCCC", "DNA 2": "TGGTGGCTACGACGGGATT"}, "B20": {"name": "AUCCUUA (DNA:RNA)", "RNA": "B6 RNA with U27C, A28C, G30U, U31A", "DNA 1": "CAATCTGAATTCCGGTCTCCC", "DNA 2": "TGGTGGCTACGACGGGATT"}, "B21": {"name": "ACCUAUG (DNA:RNA)", "RNA": "B1 RNA with U25A, G27C, C29A, C30U", "DNA 1": "CAATCTGAATTCCGGTCTCCC", "DNA 2": "TGGTGGCTACGACGGGATT"}, "B22": {"name": "UAUACGG (DNA:RNA)", "RNA": "B6 RNA with A25U, U26A, U29C, U31G", "DNA 1": "CAATCTGAATTCCGGTCTCCC", "DNA 2": "TGGTGGCTACGACGGGATT"}, "B23": {"name": "GGACGCC (DNA:RNA)", "RNA": "B1 RNA with U25G, C26G, G27A, U28C, C29G, G31C", "DNA 1": "CAATCTGAATTCCGGTCTCCC", "DNA 2": "TGGTGGCTACGACGGGATT"}, "B24": {"name": "UCAAUCG (DNA:RNA)", "RNA": "B1 RNA with G27A, U28A, C29U", "DNA 1": "CAATCTGAATTCCGGTCTCCC", "DNA 2": "TGGTGGCTACGACGGGATT"}, "B25": {"name": "UUGGCUC (DNA:RNA)", "RNA": "B1 RNA with C26U, U28G, C30U, G31C", "DNA 1": "CAATCTGAATTCCGGTCTCCC", "DNA 2": "TGGTGGCTACGACGGGATT"}, "B26": {"name": "CCCAGUA (DNA:RNA)", "RNA": "B6 RNA with A25C, U26C, U27C, U29G, G30U, U31A", "DNA 1": "CAATCTGAATTCCGGTCTCCC", "DNA 2": "TGGTGGCTACGACGGGATT"}, "B27": {"name": "CGCCGAU (DNA:RNA)", "RNA": "B6 RNA with A25C, U26G, U27C, A28C, U29G, G30A", "DNA 1": "CAATCTGAATTCCGGTCTCCC", "DNA 2": "TGGTGGCTACGACGGGATT"}, "B28": {"name": "GUCGAAA (DNA:RNA)", "RNA": "B6 RNA with A25G, U27C, A28G, U29A, G30A, U31A", "DNA 1": "CAATCTGAATTCCGGTCTCCC", "DNA 2": "TGGTGGCTACGACGGGATT"}, "B29": {"name": "UGGCUCA (DNA:RNA)", "RNA": "B1 RNA with C26G, U28C, C29U, G31A", "DNA 1": "CAATCTGAATTCCGGTCTCCC", "DNA 2": "TGGTGGCTACGACGGGATT"}, "B30": {"name": "GUGAGCC (DNA:RNA)", "RNA": "B6 RNA with A25G, U27G, U29G, G30C, U31C", "DNA 1": "CAATCTGAATTCCGGTCTCCC", "DNA 2": "TGGTGGCTACGACGGGATT"}, "B31": {"name": "CUGCAAA (DNA:RNA)", "RNA": "B6 RNA with A25C, U27G, A28C, U29A, G30A, U31A", "DNA 1": "CAATCTGAATTCCGGTCTCCC", "DNA 2": "TGGTGGCTACGACGGGATT"}},
  "note": "Numbering of substitutions follows the chain as printed; changes in the protein carry UniProt numbers. The list shows a part of the results.",
  "data": [
    {"target": "T1, RBFOX1 RRM RbFoxmut (Fox-RRM*) (Homo sapiens, UniProt Q9NWB1 109-208, R118D;E147R;N151S;E152T)", "T1 sequence": "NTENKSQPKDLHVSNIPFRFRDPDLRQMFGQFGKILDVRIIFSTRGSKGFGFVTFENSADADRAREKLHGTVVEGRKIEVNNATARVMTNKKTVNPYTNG", "experiment": "EMSA; HiTS-Eq, 1 nM pool, 10 min; buffer printed only for the single-RNA assays: 10 mM Tris pH 7.5, 150 mM NaCl, 3.4 mM EDTA, 0.001% NP-40, 30 C", "details": "tags: His6 N-terminal (pET28a); label: 5' 32P", "summary_of_the_method": "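Purified RbFox RRM, wild type or mutant, was incubated for 10 min in 50 µL with 1 nM of a 5′-radiolabelled RNA pool carrying 7 randomized nucleotides, whose flanks were annealed to DNA oligonucleotides, over a series of increasing protein concentrations. Unbound RNA was resolved on 8% native PAGE, cut out, reverse-transcribed, barcoded by PCR and sequenced on an Illumina HiSeq 2500. Relative association constants were derived from changes in read counts for each RNA species versus the control reaction and normalised to the cognate motif.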", "values": [
      {"binder": "B1", "binding signal": "0.0959 KA relative to UGCAUGU"},
      {"binder": "B2", "binding signal": "0.0629 KA relative to UGCAUGU"},
      {"binder": "B3", "binding signal": "0.0893 KA relative to UGCAUGU"},
      {"binder": "B4", "binding signal": "0.12 KA relative to UGCAUGU"},
      {"binder": "B5", "binding signal": "0.0637 KA relative to UGCAUGU"},
      {"binder": "B6", "binding signal": "0.167 KA relative to UGCAUGU"},
      {"binder": "B7", "binding signal": "0.0835 KA relative to UGCAUGU"},
      {"binder": "B8", "binding signal": "0.0917 KA relative to UGCAUGU"},
      {"binder": "B9", "binding signal": "0.144 KA relative to UGCAUGU"},
      {"binder": "B10", "binding signal": "0.209 KA relative to UGCAUGU"},
      {"binder": "B11", "binding signal": "0.0695 KA relative to UGCAUGU"},
      {"binder": "B12", "binding signal": "0.132 KA relative to UGCAUGU"},
      {"binder": "B13", "binding signal": "0.0295 KA relative to UGCAUGU"},
      {"binder": "B14", "binding signal": "0.112 KA relative to UGCAUGU"},
      {"binder": "B15", "binding signal": "0.0709 KA relative to UGCAUGU"},
      {"binder": "B16", "binding signal": "0.0927 KA relative to UGCAUGU"},
      {"binder": "B17", "binding signal": "0.144 KA relative to UGCAUGU"},
      {"binder": "B18", "binding signal": "0.0766 KA relative to UGCAUGU"},
      {"binder": "B19", "binding signal": "0.283 KA relative to UGCAUGU"},
      {"binder": "B20", "binding signal": "0.136 KA relative to UGCAUGU"},
      {"binder": "B21", "binding signal": "0.118 KA relative to UGCAUGU"},
      {"binder": "B22", "binding signal": "0.0925 KA relative to UGCAUGU"},
      {"binder": "B23", "binding signal": "0.0969 KA relative to UGCAUGU"},
      {"binder": "B24", "binding signal": "0.0683 KA relative to UGCAUGU"},
      {"binder": "B25", "binding signal": "0.134 KA relative to UGCAUGU"},
      {"binder": "B26", "binding signal": "0.116 KA relative to UGCAUGU"},
      {"binder": "B27", "binding signal": "0.0698 KA relative to UGCAUGU"},
      {"binder": "B28", "binding signal": "0.0811 KA relative to UGCAUGU"},
      {"binder": "B29", "binding signal": "0.129 KA relative to UGCAUGU"},
      {"binder": "B30", "binding signal": "0.186 KA relative to UGCAUGU"},
      {"binder": "B31", "binding signal": "0.0786 KA relative to UGCAUGU"}
    ]}
  ]
}
